Source: publication PMC4336329 (PLoS ONE, 2015)
The campaign covered roughly 310,000 compounds. About 14,000 (4.5%) showed an effect of 50% or more. Effects have a minus sign here. The list shows a part of the results.

What follows are molecules tested against human ether-à-go-go-related gene (hERG) potassium channel (human, UniProt Q12809) (assay: primary screen, population patch clamp on CHO cells stably expressing hERG).
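Further: peak tail current of the secondary pulse compared with the same well before compound.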

Chain of human ether-à-go-go-related gene (hERG) potassium channel (Q12809 whole entry, looked up): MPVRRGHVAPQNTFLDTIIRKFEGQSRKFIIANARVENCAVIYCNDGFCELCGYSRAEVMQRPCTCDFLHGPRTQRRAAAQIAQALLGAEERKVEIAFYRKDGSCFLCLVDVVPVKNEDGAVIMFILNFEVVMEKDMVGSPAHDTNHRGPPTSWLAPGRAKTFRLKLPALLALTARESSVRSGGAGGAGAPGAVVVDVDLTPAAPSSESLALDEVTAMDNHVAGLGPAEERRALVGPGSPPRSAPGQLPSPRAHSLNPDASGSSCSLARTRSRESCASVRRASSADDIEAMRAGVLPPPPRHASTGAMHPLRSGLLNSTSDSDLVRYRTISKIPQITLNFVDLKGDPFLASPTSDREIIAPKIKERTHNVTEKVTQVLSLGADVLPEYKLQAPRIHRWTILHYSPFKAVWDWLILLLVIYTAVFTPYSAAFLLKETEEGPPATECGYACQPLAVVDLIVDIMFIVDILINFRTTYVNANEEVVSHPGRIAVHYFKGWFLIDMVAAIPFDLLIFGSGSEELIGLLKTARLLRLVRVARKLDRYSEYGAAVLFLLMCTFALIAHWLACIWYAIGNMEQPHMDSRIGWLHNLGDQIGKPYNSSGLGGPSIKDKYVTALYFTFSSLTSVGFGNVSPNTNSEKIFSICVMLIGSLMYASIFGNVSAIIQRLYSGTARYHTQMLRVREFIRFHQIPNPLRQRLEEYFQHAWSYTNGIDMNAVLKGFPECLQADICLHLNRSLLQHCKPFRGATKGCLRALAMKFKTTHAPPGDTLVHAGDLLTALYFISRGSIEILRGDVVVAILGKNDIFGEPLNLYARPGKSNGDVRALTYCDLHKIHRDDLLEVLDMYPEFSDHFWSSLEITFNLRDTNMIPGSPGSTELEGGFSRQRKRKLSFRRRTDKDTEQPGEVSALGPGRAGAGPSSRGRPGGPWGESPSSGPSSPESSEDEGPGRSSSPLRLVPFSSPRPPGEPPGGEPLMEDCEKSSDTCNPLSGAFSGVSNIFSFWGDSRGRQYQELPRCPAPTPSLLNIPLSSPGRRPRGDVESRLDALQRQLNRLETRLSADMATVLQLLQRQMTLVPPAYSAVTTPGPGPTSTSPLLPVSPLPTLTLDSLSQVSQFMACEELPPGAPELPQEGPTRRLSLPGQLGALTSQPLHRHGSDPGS

Structure (SMILES)	hERG current change (%, negative = inhibition) at 10uM [%]
O=C(COC(=O)c1ccc(S(=O)(=O)N2CCCC2)cc1)Nc1cccc(F)c1	8.69
CCCCC(=O)Nc1ccc2oc(-c3cccnc3)nc2c1	-10
O=C(Nc1ccccc1)C1=C[C@H](c2ccc(C(F)(F)F)cc2)C[C@H](OCc2ccc(CO)cc2)O1	5.62
Cc1cc(C)c(C(N)=O)c(NC(=O)Nc2ccccc2Cl)n1	-7.07
CCCCC(NC(=O)c1ccc(Cl)cc1)C(=O)O (stereo not shown)	8.48
O=C(CCCN1C(=O)CSc2ncccc21)N1CCN(Cc2ccccc2)CC1	6.42
CCOCCCn1c(=S)[nH]c2cc3c(cc2c1=O)OCO3	11.6
CC(NC(=O)COC(=O)CNS(=O)(=O)/C=C/c1ccccc1)c1ccccc1 (stereo not shown)	-7.78
CN(C)c1ccc(-c2nc3ccccc3n2C)cc1	-49.9
Cc1ccc(C)c(S(=O)(=O)NC(C)C(=O)Nc2ccc(-c3nc4ccccc4s3)cc2)c1 (stereo not shown)	2.9
Cn1c(N)nc2ccccc2c1=O	1.16
COc1cc([N+](=O)[O-])ccc1NC(=S)NNC(=O)CCC(=O)Nc1ccccc1Cl	-7.41
COc1ccc(NC(=O)Nc2ccc(C)cc2Br)c(OC)c1	27.4
CC(C(=O)NC1CCCC1)N1CCN(S(=O)(=O)c2ccc(C(C)(C)C)cc2)CC1 (stereo not shown)	-19.8
Cc1c(Cl)ccc2c1NC(=O)[C@]21N[C@@H](CCC(N)=O)[C@H]2C(=O)N(c3ccc(F)cc3)C(=O)[C@H]21	4.75
COc1ccc(-c2[nH]nc3c2C(c2ccc(OC(=O)N4CCOCC4)cc2)C(C#N)=C(N)O3)cc1 (stereo not shown)	-3.71
Clc1ccc(-c2nnc3cccc(Cl)n23)c(Cl)c1	-2.44
COc1cccc(N(CC(=O)N2CCN(C)CC2)S(=O)(=O)c2ccc(C)cc2)c1	-26.5
CCOC(=O)N1CCN(C(=O)/C=C/c2ccc3c(c2)OCO3)CC1	-1.52
O=C(NC(=S)Nc1ccc(S(=O)(=O)Nc2ccccc2)cc1)C1CC1	14
Cn1c(-c2cc3ccc(OC(=O)C(C)(C)C)cc3oc2=O)nc2ccccc21	-0.599
CCCCOc1nc(N2CCOCC2)nc(C)c1[N+](=O)[O-]	0.42
COc1ccc(-c2nnc(SCC(=O)NCC3CCCO3)o2)cc1 (stereo not shown)	23.4
O=C(NC1CCCCC1)C(c1cccs1)N(Cc1cccs1)C(=O)c1ccco1 (stereo not shown)	-12.5
COC(=O)c1ccc(CSc2ccccc2C)o1	7.92
CCOC(=O)N1CCC(=NNS(=O)(=O)c2cccc([N+](=O)[O-])c2)CC1	2.61
COc1ccc(C2(CCN=Cc3ccc(N(C)C)cc3)CCOC(C)(C)C2)cc1 (stereo not shown)	-2.1
O=C(NCc1cccnc1)c1ccc2c(c1)C(=O)N(Cc1ccccc1)C2=O	-20.6

Structure (SMILES)	hERG current change (%, negative = inhibition) at 10uM [%]
O=C(Nc1ccc(CN2CCOCC2)cc1)c1ccc(Br)o1	1.56
CN(C)CCCN(C(=O)C1COc2ccccc2O1)c1nc2ccc(F)cc2s1.Cl (stereo not shown)	-75.4
Cc1cc(SCC(=O)c2ccc3c(c2)OCO3)nc2ccccc12	-6.85
CN(CC(=O)Nc1ccc(F)c(F)c1F)c1ncnc2sccc12	-1.44
CCCn1c(C(C)C)n[nH]c1=S	15.6
Fc1cccc(NCc2cn3ccccc3n2)c1	-17.6
CCOC(=O)N1CCN(C(=O)c2ccc3c(=O)n(Cc4ccccc4OC)c(=S)[nH]c3c2)CC1	-33.7
CCOC(=O)C1=C(N)OC2=C(C(=O)CCC2)C12C(=O)N(CC(N)=O)c1ccccc12 (stereo not shown)	3.15
O=C(O)c1ccc(S(=O)(=O)c2ccc3c(c2)C(=O)N(c2ccc(Br)cc2)C3=O)cc1	9.12
CCC1(C)Cc2c(sc3c2c(=O)n(C)c2nnc(SCc4ccc5c(c4)OCO5)n32)CO1 (stereo not shown)	-15.7
COc1ccc(CCC(=O)N2CCN(S(=O)(=O)c3ccc(C)cc3)CC2)cc1	-29
O=C(COC(=O)CCC(=O)c1ccc(F)cc1)Nc1cccc(S(=O)(=O)N2CCOCC2)c1	-41.6
COc1ccc(NC(=O)CSc2ccc(-c3cccnc3)nn2)c(OC)c1	-11.2
Cc1ccc(S(=O)(=O)NCCC(=O)N2CCCCCCC2)cc1	10.5
COc1ccc(Nc2ncnc3ccc(Br)cc23)c(OC)c1	-7.88
Cc1ccc(NC(=O)CC(C)CC2=NS(=O)(=O)c3ccccc3N2)cc1 (stereo not shown)	10
COc1cc(C(=O)Oc2cccc(C=O)c2)cc(OC)c1OC	-1.22
O=C(Cn1[nH]c(=O)c2ccccc2c1=O)OCC(=O)c1ccccc1Cl	-0.463
CC1CC(C)CN(C(=O)CN(C)S(=O)(=O)c2ccc3c(c2)c(=O)n(C)c(=O)n3C)C1 (stereo not shown)	4.09
Cc1ccc([N+](=O)[O-])cc1NC(=S)NC(=O)c1cccnc1	-33.2
CCNC(=O)c1cc(S(=O)(=O)N(C)C)c(Cl)cc1Cl	-1.9
Cc1c(C(=O)OC(C)CCN(C)C)oc2ccccc12.Cl (stereo not shown)	-42.8
O=C(CSc1nc2ccccc2o1)NCc1ccc2c(c1)OCO2	-5.06
CC1(C)NC(=O)N(CC(=O)Nc2cc(C(F)(F)F)cc(C(F)(F)F)c2)C1=O	3.44
CC(=O)Oc1c(C)cc(O)c2ccccc12	-13
COc1ccc(N2CCN(c3oc(Cc4ccccc4)nc3C#N)CC2)cc1	-27.8
COc1ccc(Cc2nc3ccc(C(=O)NCCc4ccncc4)cc3o2)cc1OC	7.31
